# This is one part of the list. Values were computed here from the reads of four pooled replicates and scatter widely.
# Target: T1, Pho4 (S. cerevisiae) (UniProt P07270)
# T1 sequence: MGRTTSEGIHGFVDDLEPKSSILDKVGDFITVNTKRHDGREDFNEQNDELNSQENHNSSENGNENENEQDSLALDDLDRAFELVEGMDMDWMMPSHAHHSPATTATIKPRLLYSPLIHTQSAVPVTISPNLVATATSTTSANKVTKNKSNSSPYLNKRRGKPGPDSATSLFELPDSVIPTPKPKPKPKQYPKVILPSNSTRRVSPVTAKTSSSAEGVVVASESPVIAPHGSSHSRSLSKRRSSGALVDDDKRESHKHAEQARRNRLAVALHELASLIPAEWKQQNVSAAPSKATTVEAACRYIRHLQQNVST
# Experiment: relative binding free energy (BET-seq); higher = weaker binding
# Settings: reference: library average
row,Sequence,relative binding free energy
1,TGAAGCACGTGAGCGT,0.02 kcal/mol
2,ATGACCACGTGTTTGG,-0.08 kcal/mol
3,ATGGCCACGTGGGGGT,-0.23 kcal/mol
4,CTTGACACGTGTGTTT,0.02 kcal/mol
5,TAAGTCACGTGGAAGG,0.11 kcal/mol
6,ATAGGCACGTGGAATG,0.08 kcal/mol
7,ATAGGCACGTGAAGTT,0.13 kcal/mol
8,TGAGCCACGTGTTTTG,0.02 kcal/mol
9,GTTACCACGTGGCTGG,0.02 kcal/mol
10,GTACGCACGTGATTTG,0.15 kcal/mol
11,GTGTCCACGTGATGTG,0.11 kcal/mol
12,TGAGTCACGTGTATGG,0.17 kcal/mol
13,AAGTTCACGTGGATAT,0.33 kcal/mol
14,TCGGTCACGTGAAATG,0.24 kcal/mol
15,AGGTACACGTGGCGGA,-0.06 kcal/mol
16,TCTCGCACGTGTGTTG,-0.07 kcal/mol
17,TATTACACGTGGTTCT,0 kcal/mol
18,ATGGTCACGTGAGCTT,0.09 kcal/mol
19,GCGAGCACGTGGGTAG,-0.28 kcal/mol
20,TCTCGCACGTGTGGTG,0.08 kcal/mol
21,TTAAGCACGTGGAGCG,0 kcal/mol
22,TAGATCACGTGTTATG,0.13 kcal/mol
23,TTTAGCACGTGATTGT,0.08 kcal/mol
24,AGATACACGTGGTTGG,0.01 kcal/mol
25,CGGTGCACGTGGGCGT,-0.27 kcal/mol
26,CGGGGCACGTGAAAGG,-0.02 kcal/mol

row,Sequence,relative binding free energy
1,ATAATCACGTGTGCGG,0.05 kcal/mol
2,GTTGTCACGTGATGTC,0.34 kcal/mol
3,ATTACCACGTGTGGTT,-0.03 kcal/mol
4,CTATTCACGTGGGGCG,0.08 kcal/mol
5,TACTGCACGTGGATGG,-0.09 kcal/mol
6,GGCTTCACGTGTGCGG,0.33 kcal/mol
7,ATCGTCACGTGAGGTA,0.32 kcal/mol
8,ATGGTCACGTGAGATG,0.26 kcal/mol
9,CAGGGCACGTGTTGGA,-0.05 kcal/mol
10,TCTGGCACGTGTGGTG,-0.03 kcal/mol
11,GTCTTCACGTGGATGT,0.23 kcal/mol
12,ATCGGCACGTGGTCGT,-0.1 kcal/mol
13,GTGGTCACGTGTGGGG,0.21 kcal/mol
14,GGTGCCACGTGGGTGA,-0.23 kcal/mol
15,TATGACACGTGTGGGC,0.04 kcal/mol
16,TTCGACACGTGGAGGG,0 kcal/mol
17,TGGCTCACGTGTAGGT,0.08 kcal/mol
18,GTTTTCACGTGTTTTA,0.31 kcal/mol
19,CTTTGCACGTGACTTT,0.2 kcal/mol
20,GTTTTCACGTGATCGT,0.23 kcal/mol
21,CTTAGCACGTGGGGAT,-0.14 kcal/mol
22,TTAAACACGTGTGGGA,0.11 kcal/mol
23,GGGGTCACGTGCCGGT,0.09 kcal/mol
24,TCAGGCACGTGGAGGC,0.02 kcal/mol
25,TGATGCACGTGAATGT,0.22 kcal/mol
26,GATTGCACGTGGACGT,0.01 kcal/mol

row,Sequence,relative binding free energy
1,AGGGTCACGTGCCGTT,-0.05 kcal/mol
2,GTGCTCACGTGAGGAT,0.34 kcal/mol
3,GCTTGCACGTGTAGGT,0.06 kcal/mol
4,GAGTGCACGTGATTAG,0.21 kcal/mol
5,CCGGTCACGTGGGCTT,0.13 kcal/mol
6,AGCGGCACGTGTTATT,0.03 kcal/mol
7,GGGTTCACGTGCGGGC,0.21 kcal/mol
8,AATATCACGTGTCTTA,0.21 kcal/mol
9,CGTGTCACGTGATTTT,0.26 kcal/mol
10,CAAGGCACGTGTATGG,-0.01 kcal/mol
11,TGTGCCACGTGAGGCG,0.06 kcal/mol
12,ATTAACACGTGGATGG,-0.04 kcal/mol
13,TGGATCACGTGTATTT,0.07 kcal/mol
14,GTGGGCACGTGCGGAG,-0.08 kcal/mol
15,TAAGTCACGTGGGTGG,0.03 kcal/mol
16,TGTTTCACGTGGAGCC,0.37 kcal/mol
17,GTTGACACGTGGGTTG,-0.02 kcal/mol
18,GATTACACGTGTTGAT,0.18 kcal/mol
19,TTAGGCACGTGATTGT,0.03 kcal/mol
20,ATAGACACGTGGAGTG,-0.01 kcal/mol
21,GTGTCCACGTGGTTTA,0.14 kcal/mol
22,AGAATCACGTGTTAGT,0.08 kcal/mol
23,TTATTCACGTGTTGGA,0.31 kcal/mol
24,TTGAGCACGTGGATCA,0.04 kcal/mol
25,CTCGTCACGTGGCGGG,-0.06 kcal/mol
26,AAGGGCACGTGTGATG,0 kcal/mol

row,Sequence,relative binding free energy
1,GTTTACACGTGATGGC,0.24 kcal/mol
2,CTGTACACGTGTAGTA,0.13 kcal/mol
3,CAGTACACGTGTGTTG,0.13 kcal/mol
4,GAGAACACGTGGGTGA,0.05 kcal/mol
5,CTCGTCACGTGTGTTT,0.18 kcal/mol
6,GAGGTCACGTGTGTGA,0.21 kcal/mol
7,GTAATCACGTGTTGTT,0.13 kcal/mol
8,TGGAGCACGTGTATTT,-0.08 kcal/mol
9,TTGACCACGTGAGTGT,0.09 kcal/mol
10,TAGTTCACGTGTATGA,0.32 kcal/mol
11,AGTTTCACGTGAAAGT,0.31 kcal/mol
12,CGTGTCACGTGGTGAC,0.06 kcal/mol
13,ATTTTCACGTGTGGAT,0.27 kcal/mol
14,CGGTACACGTGAGAGT,0.37 kcal/mol
15,ACGTTCACGTGGTGGT,0.15 kcal/mol
16,AGTATCACGTGATGCG,0.3 kcal/mol
17,TGCATCACGTGAATGT,0.26 kcal/mol
18,AAGGTCACGTGTGGCG,0.11 kcal/mol
19,GGTGGCACGTGAATTG,0.08 kcal/mol
20,TTGAGCACGTGTCCGT,-0.08 kcal/mol
21,TGATGCACGTGACGTG,0.03 kcal/mol
22,GCTGGCACGTGTGTAT,-0.02 kcal/mol
23,TGTAACACGTGAAGGC,0.41 kcal/mol
24,GTGTACACGTGCGGAT,0.07 kcal/mol
25,TTGTGCACGTGGAAGG,0.07 kcal/mol
26,TCTATCACGTGGGCGG,-0.07 kcal/mol

row,Sequence,relative binding free energy
1,TTTTTCACGTGCGCGG,0.12 kcal/mol
2,TAGGCCACGTGGGGAG,-0.22 kcal/mol
3,CGACGCACGTGGGTGG,-0.3 kcal/mol
4,CTGGGCACGTGCTGTG,-0.21 kcal/mol
5,TGTTACACGTGAATTG,0.24 kcal/mol
6,TAAGGCACGTGGAGTT,-0.09 kcal/mol
7,TTTGGCACGTGGCCCG,-0.2 kcal/mol
8,CGTGGCACGTGAGTGG,0.06 kcal/mol
9,GGGGGCACGTGGGAGC,-0.2 kcal/mol
10,AGTGGCACGTGGACGG,-0.05 kcal/mol
11,GGGGACACGTGACAGT,0.29 kcal/mol
12,GGGCTCACGTGTTGAA,0.17 kcal/mol
13,GGATGCACGTGAATTT,0.41 kcal/mol
14,AATACCACGTGGGGTT,-0.24 kcal/mol
15,CTGTTCACGTGGACGT,0.37 kcal/mol
16,GGGATCACGTGTGTAT,0.38 kcal/mol
17,TATGACACGTGTTTAG,-0.01 kcal/mol
18,CGGCGCACGTGTGTTA,0 kcal/mol
19,GTGGTCACGTGATCTA,0.22 kcal/mol
20,TGAAGCACGTGGAAGG,-0.18 kcal/mol
21,CTTTTCACGTGGAGTA,0.34 kcal/mol
22,TGTGGCACGTGTCGTT,-0.03 kcal/mol
23,TTATGCACGTGGTTTA,-0.06 kcal/mol
24,TAGTTCACGTGTCTTG,0.25 kcal/mol
25,GGTGCCACGTGTATTG,-0.09 kcal/mol
26,TATTTCACGTGATGTA,0.27 kcal/mol

row,Sequence,relative binding free energy
1,GTCGTCACGTGATGTT,0.19 kcal/mol
2,TGTTGCACGTGCGGAC,-0.02 kcal/mol
3,AGGGCCACGTGGTTAG,-0.05 kcal/mol
4,GGGTCCACGTGGGATA,0 kcal/mol
5,GTTGTCACGTGGGGGT,0.06 kcal/mol
6,GTGATCACGTGGTATC,0.07 kcal/mol
7,GTCAACACGTGGGGGG,-0.12 kcal/mol
8,GCTGGCACGTGTTAGG,-0.05 kcal/mol
9,GTTTTCACGTGGCCTG,0.33 kcal/mol
10,GGAATCACGTGAAAGT,0.37 kcal/mol
11,GATGGCACGTGATGGG,0.14 kcal/mol
12,AGGGGCACGTGTTAAT,-0.09 kcal/mol
13,CGGATCACGTGGGAGT,-0.03 kcal/mol
14,TGAAACACGTGGAGTG,-0.06 kcal/mol
15,GAGGTCACGTGGGTAA,-0.01 kcal/mol
16,TGACGCACGTGTGTGT,-0.09 kcal/mol
17,ATGTACACGTGGGTCC,-0.01 kcal/mol
18,TGTTACACGTGGGGCG,0.01 kcal/mol
19,GGTGTCACGTGATGAA,0.24 kcal/mol
20,ATTGGCACGTGCTATA,-0.29 kcal/mol
21,GCATTCACGTGGCTGT,0.2 kcal/mol
22,TGACACACGTGTGGTG,-0.1 kcal/mol
23,AAGTCCACGTGGTTGT,-0.16 kcal/mol
24,GGGAGCACGTGGGTTT,-0.06 kcal/mol
25,CGTGGCACGTGTGTGA,-0.08 kcal/mol
26,AGGGTCACGTGAGGGT,0.2 kcal/mol

row,Sequence,relative binding free energy
1,TAGGTCACGTGAGTGA,0.17 kcal/mol
2,ATTGGCACGTGCTTTT,-0.27 kcal/mol
3,TTGGTCACGTGGCAAG,0.03 kcal/mol
4,CGGATCACGTGTAGGT,0.24 kcal/mol
5,GATTACACGTGTTATG,0.11 kcal/mol
6,AATTGCACGTGTAGCT,0.16 kcal/mol
7,GGAGGCACGTGCGGGA,-0.15 kcal/mol
8,GCTCTCACGTGGGTTT,0.12 kcal/mol
9,TTTTCCACGTGATGAG,0.16 kcal/mol
10,TGGGCCACGTGGGTCT,-0.17 kcal/mol
11,GGCATCACGTGGGGGA,-0.02 kcal/mol
12,CCGAGCACGTGGTGTT,-0.05 kcal/mol
13,CTTTGCACGTGGGTCA,-0.14 kcal/mol
14,GTGAGCACGTGAATGG,0.17 kcal/mol
15,TGGGTCACGTGGGCGA,-0.07 kcal/mol
16,ATTTACACGTGTGGTT,0.19 kcal/mol
17,GACTTCACGTGTGTGT,0.33 kcal/mol
18,CATGTCACGTGAAAGG,0.36 kcal/mol
19,TCGATCACGTGTGTTG,0.02 kcal/mol
20,GAGTGCACGTGTTCTA,0.05 kcal/mol
21,CTTAGCACGTGGAGTG,-0.01 kcal/mol
22,CTGTGCACGTGTGTTA,-0.04 kcal/mol
23,AGTGGCACGTGGTCCG,-0.28 kcal/mol
24,ACGTTCACGTGTCGTG,0.15 kcal/mol
25,ATCTTCACGTGGGGGA,0.22 kcal/mol
26,TAGCACACGTGTGGAT,0.27 kcal/mol

row,Sequence,relative binding free energy
1,GTGTTCACGTGCATTT,0.27 kcal/mol
2,GTTAGCACGTGGGCAA,-0.12 kcal/mol
3,GGCGTCACGTGTTGTG,0.18 kcal/mol
4,TGAGGCACGTGAGGCC,0.06 kcal/mol
5,CGGATCACGTGAGTTG,0.21 kcal/mol
6,GGACTCACGTGTTGTA,0.19 kcal/mol
7,ATTCACACGTGAGGTT,0.25 kcal/mol
8,TAGGACACGTGGGATA,-0.1 kcal/mol
9,GCGTGCACGTGGATGT,0.14 kcal/mol
10,TTACGCACGTGTTGTA,-0.09 kcal/mol
11,TGGCGCACGTGGGCGC,-0.19 kcal/mol
12,GGTATCACGTGGGAAC,0.24 kcal/mol
13,TTTTACACGTGTGTCT,0.1 kcal/mol
14,ATTGACACGTGAAATT,0.33 kcal/mol
15,TTGTGCACGTGGTGCA,-0.14 kcal/mol
16,GGGCGCACGTGGTTTA,-0.09 kcal/mol
17,CTTTTCACGTGATTGA,0.29 kcal/mol
18,GGGGACACGTGATGGG,0.05 kcal/mol
19,AGCTGCACGTGACGGT,0.15 kcal/mol
20,CTTTGCACGTGTATAT,-0.01 kcal/mol
21,TGGTTCACGTGTGTGC,0.31 kcal/mol
22,TGTGTCACGTGTTTAA,0.06 kcal/mol
23,ATGATCACGTGAGTGC,0.4 kcal/mol
24,TTGGTCACGTGCCCGT,0.17 kcal/mol
25,TTTGACACGTGGGTGG,-0.03 kcal/mol
26,TATGACACGTGGTGGC,0.1 kcal/mol

row,Sequence,relative binding free energy
1,TATGACACGTGGAGTT,0.04 kcal/mol
2,GGATGCACGTGTTTGA,0.11 kcal/mol
3,CAGGACACGTGGGCTG,0.03 kcal/mol
4,GTCGTCACGTGATTTG,0.29 kcal/mol
5,CTTGGCACGTGGATAG,-0.09 kcal/mol
6,TTCATCACGTGGGTCT,0.04 kcal/mol
7,GAGGTCACGTGTCGTG,0.32 kcal/mol
8,ATTTACACGTGAGGGT,0.24 kcal/mol
9,TGTCGCACGTGGGGCT,-0.27 kcal/mol
10,CAAGTCACGTGTTTAG,0.21 kcal/mol
11,CTCTGCACGTGGTTTG,-0.1 kcal/mol
12,CTCGTCACGTGTGTAG,0.13 kcal/mol
13,TGGTGCACGTGATTGG,0.14 kcal/mol
14,TGTGGCACGTGCTGAC,-0.09 kcal/mol
15,ATGTGCACGTGCATGT,-0.24 kcal/mol
16,AGAAGCACGTGTGGAA,0.04 kcal/mol
17,CTGGGCACGTGATTGG,-0.11 kcal/mol
18,ATGTTCACGTGTACTG,0.15 kcal/mol
19,TGTGCCACGTGGTATG,-0.31 kcal/mol
20,GGAAACACGTGGGTGC,-0.03 kcal/mol
21,GAAGTCACGTGTATGA,0.15 kcal/mol
22,ATGGACACGTGGTCTG,-0.13 kcal/mol
